In article PMC7915732 (2021):

Columns and labels:
cyclo[E-LYLAYPAH-K] [1] = biological target: T1, cyclo[E-LYLAYPAH-K] (synthetic construct, lactam 1-10); test: yeast surface titration
T1 chain: ELYLAYPAHK

cyclo[E-VQCRGKGEQ-K] = biological target: T2, cyclo[E-VQCRGKGEQ-K] (synthetic construct, lactam 1-11); test: yeast surface titration
T2 chain: EVQCRGKGEQK

[2] = biological target: T3, QVQCRGKGEQK linear peptide (synthetic construct); test: yeast surface titration
T3 chain: QVQCRGKGEQK

[3] = biological target: T4, QLYLAYPAHK linear peptide (synthetic construct); test: yeast surface titration
T4 chain: QLYLAYPAHK

PTCH peptide = biological target: T5, PTCH peptide (Homo sapiens, not fully specified); test: resin adsorption isotherm
T5 chain: RYSPPPPYSSHS

cyclo[E-LYLAYPAH-K] [4] = biological target: T6, cyclo[E-LYLAYPAH-K] (synthetic construct, lactam 1-10); test: resin adsorption isotherm
T6 chain: ELYLAYPAHK

Kd (cyclo[E-LYLAYPAH-K] [1]): 1.75 µM
Kd (cyclo[E-VQCRGKGEQ-K]): 0.46 µM
Kd [2]: 0.36 µM
Kd [3]: 0.74 µM
Kd (PTCH peptide): 0.2 µM
Kd (cyclo[E-LYLAYPAH-K] [4]): 0.34 µM
B1: N-terminal YAP […] (protein)
chain: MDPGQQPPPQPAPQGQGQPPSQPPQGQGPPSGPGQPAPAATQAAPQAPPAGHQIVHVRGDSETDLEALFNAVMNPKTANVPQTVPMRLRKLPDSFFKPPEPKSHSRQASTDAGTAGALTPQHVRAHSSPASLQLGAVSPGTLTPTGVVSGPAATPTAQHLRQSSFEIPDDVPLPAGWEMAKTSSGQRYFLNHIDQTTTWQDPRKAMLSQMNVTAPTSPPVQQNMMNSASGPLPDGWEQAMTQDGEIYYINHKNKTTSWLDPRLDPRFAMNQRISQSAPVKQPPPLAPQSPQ

Bridge positions count the residues as written; N and C are the ends. Ends that are not written are not given here.
